Hit rate of the full screen: of about 48,000 compounds, about 1,200 (2.5%) were called active. About 2% were inconclusive and are not listed.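 The calls were made as follows: active = activation of at least 60% and not above a set upper limit (about 1 call in 100 departs from these limits); inconclusive = activation of 40% to 60%, or above that upper limit; inactive = activation under 40%.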 The list shows a part of the results.
molecular target: Probable G-protein coupled receptor 32 (Homo sapiens) (UniProt O75388); assay: qHTS for Agonists of Human Resolvin D1 Receptor DRV1; conditions: CHO-K1 GPR32 beta-arrestin PathHunter luminescence, 90 min; at 76.9 µM; active compounds read high; zero percent set by DMSO-only wells
Method in brief: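 Beta-arrestin recruitment read-out: luminescence from complemented beta-Gal in CHO-K1 GPR32 PathHunter cells, measured 1 h after detection reagent at ambient temperature following 90 min compound exposure at 37 °C; DMSO served as basal (EC0) control.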

UniProt O75388, sequence (O75388 whole entry, looked up): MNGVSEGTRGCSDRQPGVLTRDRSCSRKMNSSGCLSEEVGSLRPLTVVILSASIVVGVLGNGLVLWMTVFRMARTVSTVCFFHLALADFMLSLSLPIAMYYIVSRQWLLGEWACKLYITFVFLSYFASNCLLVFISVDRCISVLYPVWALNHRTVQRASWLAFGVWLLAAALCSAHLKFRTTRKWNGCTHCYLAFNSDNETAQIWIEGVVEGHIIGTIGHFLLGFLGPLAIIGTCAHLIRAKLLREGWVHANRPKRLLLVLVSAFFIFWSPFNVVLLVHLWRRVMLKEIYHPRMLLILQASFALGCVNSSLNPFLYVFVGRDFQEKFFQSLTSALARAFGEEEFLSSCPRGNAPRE

Row | SMILES | activation
1 | Cc1ccc(C)c(Cn2c3ccccc3c3cnn(CC(=O)NC4CCCCCC4)c(=O)c32)c1 | inactive: 17.4%
2 | Cc1ccc(-c2c3c(=O)n(C)c(=O)n(C)c3c3c(-c4cccc(C)c4)nc4ccccc4n23)cc1 | inactive: 4.68%
3 | Cc1cc(C)c(S(=O)(=O)NCC2CCC(C(=O)NCCc3ccccc3)CC2)c(C)c1 (stereo not drawn) | inactive: -15.4%
4 | COC(=O)c1ccccc1NC(=O)c1ccc2c(c1)CCN2S(=O)(=O)c1ccc(Cl)cc1 | inactive: -0.328%
5 | COc1ccc(CN(Cc2ccco2)C(=O)COc2ccccc2Cl)cc1 | inactive: -7.91%
6 | COc1ccc(-c2cc(OC(=O)c3cccc(Cl)c3)c3c(C)oc(C)c3c(=O)c2)cc1OC | inactive: -13.3%
7 | N#Cc1nc(/C=C/c2ccc(F)cc2)oc1N1CCCCCC1 | inactive: 8.48%
8 | COC1=CC(=O)C[C@@H](C)[C@]12Oc1c(Cl)c(OC)cc(OC)c1C2=O | inactive: -0.864%
9 | CC(NS(=O)(=O)c1ccc2c(c1)CCN2C(=O)CCCC(=O)O)c1ccccc1 (stereo not drawn) | inactive: 0.126%
10 | Cc1ccccc1NC(=O)CSc1nc(-c2cccs2)nc2cc(=O)[nH]n12 | inactive: 6.21%
11 | COc1ccc(-n2nc(C(=O)Nc3cc(C)c(Cl)cc3OC)c3c4ccccc4n(C)c3c2=O)cc1 | inactive: -12.5%
12 | CCc1c(C)sc(NC(=O)c2cc3nc(-c4ccc(OC)cc4)cc(C(F)(F)F)n3n2)c1C(=O)OC | inactive: -0.237%
13 | CCN(CC)c1ccc(NC(=O)Cn2nc3c(cc2=O)CCCC3)c(C)c1 | inactive: -21.2%
14 | COc1cc(OC)cc(C(=O)N2CCN(C(=O)COc3ccc(C)cc3)CC2)c1 | inactive: -6.08%
15 | COc1cccc(-n2c(SCC(=O)Nc3ccc4c(c3)OCO4)nc3c([nH]c4ccccc43)c2=O)c1 | inactive: -4.15%
16 | CCCNC(=O)c1ccc(Cn2c(SCC(N)=O)nc3ccccc3c2=O)cc1 | inactive: -5.5%
17 | COc1ccc(OC)c(NC(=O)c2cc3cccc(OC)c3oc2=O)c1 | inactive: 24.7%
18 | COc1cccc(CNC(=O)Cn2ncn3c(cc4ccccc43)c2=O)c1 | inactive: -1.19%
19 | Cc1nn(-c2ccccc2)c(OC(=O)c2ccc(Cl)cc2)c1S(=O)(=O)c1ccccc1 | inactive: 29%
20 | CCOc1ccccc1C(=O)N1CCc2cc(OC)c(OC)cc2C1COc1ccc(OC)cc1 (stereo not drawn) | inactive: -4.45%
21 | Cc1ccc(-c2nc3cccc(C)n3c2Nc2ccc3c(c2)OCO3)o1 | inactive: -20.5%

Row | SMILES | activation
22 | CCC(=O)Oc1c(Sc2ccc(C)cc2)c(C)nn1-c1ccccc1 | inactive: -1.69%
23 | COc1ccc(CNS(=O)(=O)c2cc3c(cc2Cl)NC(=O)CO3)cc1 | inactive: -0.859%
24 | CC(C)CC(=O)Nc1ccc2nc(SCC(=O)N3CCOCC3)sc2c1 | inactive: 0.677%
25 | O=C(CSc1nc(=O)n(CCN2CCOCC2)c2c1CCC2)Nc1ccc(F)cc1F | inactive: -13.1%
26 | COCCCn1c(SCC(=O)Nc2ccc(OC)cc2)nc2c(sc3ccccc32)c1=O | inactive: -7.11%
27 | CC(C)(C)c1cc(/C=C(\C#N)C(N)=S)cc(C(C)(C)C)c1O | inactive: -33%
28 | O=C(c1cc(-c2ccc(Br)cc2)n[nH]1)N1CCN(S(=O)(=O)c2ccc(Cl)s2)CC1 | inactive: 9.74%
29 | CCOC(=O)c1cc(-c2ccc(F)cc2)n(CCC(=O)Nc2cc(OC)cc(OC)c2)c1C | inactive: -26.2%
30 | Cn1c(=O)c2c(nc(N3CCOCC3)n2Cc2ccccc2F)n(C)c1=O | inactive: 9.07%
31 | O=C(CSc1nc2ncccc2o1)Nc1ccc(Cl)cc1F | inactive: -28.3%
32 | O=C(Nc1ccccc1C(F)(F)F)C1CCN(S(=O)(=O)c2ccccc2)CC1 | inactive: 40.7%
33 | Cc1ccccc1-c1noc(-c2ccc(NCc3cccnc3)c([N+](=O)[O-])c2)n1 | inactive: 15.5%
34 | O=C(NC1CCCCC1)c1ccc(CSc2nc3cccnc3n2Cc2ccccc2)cc1 | inactive: 43.8%
35 | CC1=C(c2ccc(C(C)C)cc2)S(=O)(=O)N=C1N1CCC(C(=O)NCc2ccc(C)o2)CC1 | inactive: 21.7%
36 | CC(=O)Nc1cccc(NC(=O)CSc2nccn2Cc2ccccc2)c1 | inactive: 21.9%
37 | O=C(COc1ccccc1-c1nc(-c2ccccc2)no1)Nc1ccc([N+](=O)[O-])cc1 | inactive: 4.58%
38 | Cc1cc(C)c2c(NC(=O)c3ccccc3Cl)c(C(=O)NCc3ccc(Cl)cc3)sc2n1 | inactive: -1.97%
39 | Cc1ccc(CN(Cc2cccn2-c2nnc(N3CCCC3=O)s2)C(=O)Nc2ccccc2Cl)cc1 | inactive: -23.1%
40 | Cc1cc(Nc2cc(Cl)ccc2C)n2nc(-c3ccccc3)nc2n1 | inactive: 9.96%
41 | CC(=O)c1cccc(NC(=O)Cn2ccn3nc(-c4ccccc4)cc3c2=O)c1 | inactive: -1.59%
42 | CCOC(=O)c1c(N)n(-c2ccc(OCC)cc2)c2nc3ccccc3nc12 | inactive: 4.42%

Row | SMILES | activation
43 | Cc1c(CC(=O)NCCc2ccccc2)c(=O)oc2c(C)c3occ(C(C)(C)C)c3cc12 | inactive: -18.9%
44 | COc1ccc(OCCCn2c(C3CC(=O)N(c4ccc(F)cc4)C3)nc3ccccc32)cc1 (stereo not drawn) | inactive: 1.68%
45 | CCOC(=O)c1c(C)[nH]c(CCC(=O)NCc2ccc(OC)cc2OC)c1C | inactive: -13.1%
46 | Cc1nc2c(-c3ccc(F)cc3)c(C)nn2c(C)c1CCC(=O)NCc1ccc(F)cc1 | inactive: -3.35%
47 | COc1ccc(OC)c(-c2noc(N3CCN(c4cccc(C(F)(F)F)c4)CC3)n2)c1 | inactive: 9.64%
48 | CCCCC1=NC2(CCCC2)C(=O)N1Cc1ccc(-c2ccccc2-c2nn[nH]n2)cc1 | inactive: -25.4%
49 | COc1ccc(NC(=O)c2nnn(-c3ccc(C(C)C)cc3)c2C)c(OC)c1 | inactive: 21.6%
50 | CC(C)CCNC(=O)c1cc(-c2cccnc2)nc2ccc(S(=O)(=O)N3CCC(C)CC3)cc12 | inactive: -8.44%
51 | O=C(CSc1nc2c([nH]c3ccccc32)c(=O)n1-c1ccccc1)N1CCCCC1 | inactive: -13.4%
52 | CCOc1ccc(-c2cc(C(=O)NCCc3ccc(C)cc3)c3ccccc3n2)cc1 | inactive: 33.2%
53 | Cc1cccc(-n2c3nc(=O)[nH]c(=O)c-3cc3ccc(Cl)cc32)c1C | inactive: 1.7%
54 | CCOc1cccc2sc(N3CCN(C(=O)c4ccco4)CC3)nc12 | inactive: -16.7%
55 | Cn1c(CN2CCOCC2)nc2cc(NC(=O)c3ccccc3[N+](=O)[O-])ccc21 | inactive: -5.13%
56 | O=C(NCCCN1CCN(c2ccc(F)cc2)CC1)Nc1ccccc1Cl | inactive: 29.7%
57 | COc1cc(OC)c(NC(=O)c2ccc(-n3cnc4cccnc43)cc2)cc1Cl | inactive: 15.4%
58 | CCOC(=O)CC(NC(=O)Cn1nnc(-c2ccc(Cl)cc2)n1)c1ccc(OC)cc1 (stereo not drawn) | inactive: 1.73%
59 | COc1ccc(-n2ncc3c2ncn2nc(-c4ccc(OC)c(OC)c4)nc32)cc1 | inactive: -23.5%
60 | CC1=C(C(=O)Nc2ccccc2)C(c2ccc(Br)cc2)n2nc(CCCO)nc2N1 (stereo not drawn) | inactive: -1.86%
61 | Cn1ccc2cc(S(=O)(=O)N3CCCC(C(=O)NCc4ccccc4F)C3)ccc21 (stereo not drawn) | inactive: 37.4%
62 | Cc1ccccc1-c1nc(CNC(=O)NC2CCCCC2)c(C)o1 | inactive: 4.13%
63 | CCCCN(CCCC)CCCNC(=O)c1cc(-c2ccc(Cl)s2)nc2ccccc12 | inactive: -8.57%

Row | SMILES | activation
64 | CC(C)c1ccc(C2CC(=O)N3CN(C4CCCCC4)CSC3=C2C#N)cc1 (stereo not drawn) | inactive: -9.08%
65 | COc1ccccc1N1CCN(C(=O)c2nn(C)c3c2CS(=O)(=O)c2ccccc2-3)CC1 | inactive: -4.08%
66 | CCCc1cc(=O)[nH]c(Nc2cc(Cl)cc(Cl)c2)n1 | active: 98.5%
67 | O[C@@H](COc1cccc2ncccc12)CN1CCN(C2c3ccccc3[C@@H]3[C@H](c4ccccc42)C3(F)F)CC1 (stereo partly drawn) | inactive: 7.87%
68 | CCn1cc2nc(SCc3cc(C)ccc3C)n(Cc3ccc(Cl)cc3)c(=O)c2n1 | inactive: -21.7%
69 | CCN(CC)c1ccc(CN(C(=O)c2cc(=O)c3ccccc3o2)C2CCS(=O)(=O)C2)cc1 (stereo not drawn) | inactive: -31.9%
70 | COc1cccc(CNC(=O)CN2C(=O)COc3ccc(S(=O)(=O)N4CCCCC4)cc32)c1 | inactive: -5.7%
71 | Cn1cc(S(=O)(=O)N2CCCC2)cc1C(=O)Nc1ccc(F)cc1F | inactive: -6.84%
72 | CCOC(=O)c1ccc(NC(=O)Cc2noc3ccc(C)cc23)cc1 | inactive: -4.82%
73 | Cc1ccc(CNC(=O)CCCCCn2c(=O)c3sccc3n(CC(=O)N3CCCCC3C)c2=O)cc1 (stereo not drawn) | inactive: 9.54%
74 | O=C(CCCCCn1c(=O)[nH]c2ccccc2c1=O)N1CCN(c2cccc(C(F)(F)F)c2)CC1 | inactive: -9.92%
75 | O=C(C1CCN(S(=O)(=O)c2cccs2)CC1)N1CCN(c2ccccc2F)CC1 | inactive: 2.88%
76 | CCCCC12CN3CC(C)(CN(C1)C3c1ccc(OCc3ccccc3)cc1)C2=O (stereo not drawn) | inactive: -1.66%
77 | CC1=C(C(=O)Nc2ccccc2Br)C2(CCC(C)CC2)OC1=O (stereo not drawn) | inactive: 2.78%
78 | Cc1ccc(-c2nc3sc(CCNC(=O)c4ccc(F)c(F)c4)c(C)n3n2)cc1 | inactive: 0.896%
79 | C[C@H](NC(=O)/C(C#N)=C/c1ccc(O)c(O)c1)c1ccccc1 | inactive: -26.9%
80 | CNC(=O)c1c(I)c(NC(C)=O)c(I)c(C(=O)O)c1I | inactive: 30.3%
81 | CCN(C(=O)Cn1c(C(=O)OC)cc2sccc21)c1cccc(C)c1 | inactive: -22.6%
82 | Cc1ccccc1NC(=O)c1sc2nc(-c3cc4ccccc4oc3=O)[nH]c(=O)c2c1C | inactive: -12.5%
83 | Cc1nc(-c2ccc(S(=O)(=O)N3CCN(c4ccccc4F)CC3)cc2)co1 | inactive: 27.8%

Source: PubChem BioAssay AID1346428 (National Center for Advancing Translational Sciences (NCATS), 2018)
